Reference: patent publication US12662541B2, “Antibody-drug conjugates against the receptor tyrosine kinase EphA5” (Rutgers, The State University of New Jersey, priority 2021, dated 2026)
Entries after “also recorded” stand apart in the source; their conditions may differ.

B1: VH5/VK3: humanized anti-EphA5 IgG1/kappa antibody, heavy chain SEQ ID NO:39, light chain SEQ ID NO:40 (antibody)
heavy: EVQLVESGGGLVQPGGSLKLSCAASGFTFSTFGIHWVRQAPGKGLEWVAYISGASTTIYYADSVKGRFTISRDNSKNTLYLQMNSLRAEDTAVYYCARYGTSFPYGLDYWGQGTLVTVSSASTKGPSVFPLAPSSKSTSGGTAALGCLVKDYFPEPVTVSWNSGALTSGVHTFPAVLQSSGLYSLSSVVTVPSSSLGTQTYICNVNHKPSNTKVDKRV[letters of human IgG1 Fc left out]
light: DIVMTQSPDSLAVSLGERATINCKASQSVDYDGDSYMNWYQQKPGKAPKLLIYGASNLESGIPDRFSGSGSGTDFTLTISRLEPEDAAVYYCQQSNEDPFTFGQGTKLEIKRTVAAPSVFIFPPSDEQLKSGTASVVCLLNNFYPREAKVQWKVDNALQSGNSQESVTEQDSKDSTYSLSSTLTLSKADYEKHKVYACEVTHQGLSSPVTKSFNRGEC
B2: VH5Vk3-ThioBridge®-VCP-MMAE (conjugate)
heavy: B1 heavy
light: B1 light

Tests used:
[1] = system: EphA5+ cells (H460 human lung cancer cells); assay: Antibody internalization, EphA5+ cells; format: cell-based
EphA5− cells = assay: Antibody internalization, EphA5− cells; format: cell-based
[2] = system: H460, A549 and H1299 human lung carcinoma cells; assay: Incucyte Human Fabfluor-pH Red antibody internalization; format: cell-based; conditions: naked mAb, real-time live cell imaging
Description: In vitro studies were conducted in which three different Eph5A-expressing target cell lines were incubated with various concentrations of VH5Vk3 or VH4Vk3 antibodies after which internalization of bound antibody was calculated. Antibody internalization was performed with the Incucyte® Human Fabfluor-pH Red Antibody Labeling Dye and the naked VH4Vk3 (FIG. 66) and VH5Vk3 (FIG. 67) human monoclonal antibodies in the following cell lines: H460 human lung carcinoma, A549 human lung carcinoma and H1299 human lung carcinoma. These cell lines express variable levels of EphA5 on the cell surface: H460 (+++)>A549 (++)=H1299 (++). Internalization was visualized and quantified using real-time live cell imaging analysis. The Fabfluor-pH Red Antibody Labeling Dye is sensitive to pH and only emits fluorescence once inside lysosomes in low pH conditions.

EphA5 antigen = target: T1, EphA5 antigen (Homo sapiens, UniProt P54756); assay: ka (1/Ms)
T1 construct: purchased R and D systems 3036-A5
Description: Table printed on a drawing sheet, FIG. 19
Head of the field: ka (1/Ms)
The patent's description of the figure: FIG. 19 is a table illustrating the Multi-cycle kinetic parameters of chimeric (VH0/VK0) and humanized variants (tested as purified proteins) binding to EphA5 antigen as determined using the Biacore T200. The relative KD was calculated by dividing the KD of the humanized variant by that of the VH0VK0 (first row) assayed in the same experiment. […]
Where the first naming reader finds the target: description_of_the_figure: humanized variants (tested as purified proteins) binding to EphA5 antigen as determined using the Biacore T200

[3] = system: H522, H460, A549 and H1299 cells; assay: Incucyte cytotoxicity of ADC (% confluence); format: cell-based, human; conditions: EphA5 expression H522 (++++)>H460 (+++)>A549 (++)=H1299 (++)
[4] = system: patient-derived xenograft model (PDX) of breast cancer, ER, PR, and HER2 negative invasive ductal carcinoma; assay: Triple-negative breast cancer PDX efficacy (Example 4); format: in vivo, mice; conditions: 5 doses of 10 mg/kg every 7 days; controls reached endpoints within 16 days
Description: Lastly, a study was performed using a patient-derived xenograft model (PDX) of breast cancer. Briefly, tissue from an ER, PR, and HER2 negative (triple-negative) invasive ductal carcinoma breast tumor was xenografted into mice. […] After engraftment but prior to treatment, xenograft tissue was evaluated for the expression of EphA5 (FIG. 98, left). Treatment consisted of 5 doses of MMAE-conjugate ADC at 10 mg/kg administered every 7 days.

[5] = system: PDX model TM00098 (BR1126F), triple negative breast cancer; assay: PDX TM00098 efficacy; format: in vivo, mice
Description: (§1) The present studies were performed using female NSG™ mice implanted with the PDX model TM00098 (BR1126F) purchased from Jackson Laboratories. These mice are extremely immunodeficient and carry two mutations: severe combined immune deficiency (scid) and a complete null allele of the IL2 receptor common gamma chain (IL2rgnull). The scid mutation is a mutation in the DNA repair complex protein Prkdc and renders the mice B and T cell deficient. The IL2rgnull mutation prevents cytokine signaling through multiple receptors, leading to a deficiency in functional NK cells. This severe immunodeficiency allows the implantation of PDX and growth of human tissue-based tumors in the mice. These tumors have similar characteristics to the human tumors from which they are derived (e.g., gene expression) and are predictive of human response to therapeutic agents.
Mice received 5 weekly doses of ADC1 or ADC2 at 10 mg/kg or PBS via tail vein injection. Animals were dosed on days 0, 7, 14, 21 and 28 and observed the tumors from day 28-50 without treatment to observe sustained regression and/or delay in tumor regrowth. The number of mice used per group averaged n=7-10 with some mice presenting with more than 1 tumor implanted subcutaneously. In those cases, each tumor size was measured and recorded independently. […]

[6] = system: PDX model TM00188 (LG0520F), lung squamous cell carcinoma; assay: PDX TM00188 efficacy; format: in vivo, mice; conditions: 5 weekly doses of 10 mg/kg tail vein, ADC2 = VH5Vk3-ThioBridge®-VCP-(SN-38)2, listed as ADC1, 10 mg/kg
Description: as §1, with “TM00188 (LG0520F)” for “TM00098 (BR1126F)”, “(IL2rg^null).” for “(IL2rgnull).”, “IL2rg^null” for “IL2rgnull”
Mice received 5 weekly doses of ADC1 or ADC2 at 10 mg/kg or PBS via tail vein injection. Animals were dosed on days 0, 7, 14, 21 and 28 followed by 3 weeks of observation (day 28-50) without treatment. The number of mice used per group averaged n=10 with some mice presenting with more than 1 tumor implanted subcutaneously. In those cases, each tumor size was measured and recorded independently. Measurements were performed 2-3 times weekly with the aid of a digital caliper (Fisherbrand™ Traceable™ Digital Carbon Fiber Calipers). […]

[7] = Body weight of tumor-bearing mice pre- and post-treatment, cell line xenograft studies

T1 sequence (P54756 25-1037 limits assumed): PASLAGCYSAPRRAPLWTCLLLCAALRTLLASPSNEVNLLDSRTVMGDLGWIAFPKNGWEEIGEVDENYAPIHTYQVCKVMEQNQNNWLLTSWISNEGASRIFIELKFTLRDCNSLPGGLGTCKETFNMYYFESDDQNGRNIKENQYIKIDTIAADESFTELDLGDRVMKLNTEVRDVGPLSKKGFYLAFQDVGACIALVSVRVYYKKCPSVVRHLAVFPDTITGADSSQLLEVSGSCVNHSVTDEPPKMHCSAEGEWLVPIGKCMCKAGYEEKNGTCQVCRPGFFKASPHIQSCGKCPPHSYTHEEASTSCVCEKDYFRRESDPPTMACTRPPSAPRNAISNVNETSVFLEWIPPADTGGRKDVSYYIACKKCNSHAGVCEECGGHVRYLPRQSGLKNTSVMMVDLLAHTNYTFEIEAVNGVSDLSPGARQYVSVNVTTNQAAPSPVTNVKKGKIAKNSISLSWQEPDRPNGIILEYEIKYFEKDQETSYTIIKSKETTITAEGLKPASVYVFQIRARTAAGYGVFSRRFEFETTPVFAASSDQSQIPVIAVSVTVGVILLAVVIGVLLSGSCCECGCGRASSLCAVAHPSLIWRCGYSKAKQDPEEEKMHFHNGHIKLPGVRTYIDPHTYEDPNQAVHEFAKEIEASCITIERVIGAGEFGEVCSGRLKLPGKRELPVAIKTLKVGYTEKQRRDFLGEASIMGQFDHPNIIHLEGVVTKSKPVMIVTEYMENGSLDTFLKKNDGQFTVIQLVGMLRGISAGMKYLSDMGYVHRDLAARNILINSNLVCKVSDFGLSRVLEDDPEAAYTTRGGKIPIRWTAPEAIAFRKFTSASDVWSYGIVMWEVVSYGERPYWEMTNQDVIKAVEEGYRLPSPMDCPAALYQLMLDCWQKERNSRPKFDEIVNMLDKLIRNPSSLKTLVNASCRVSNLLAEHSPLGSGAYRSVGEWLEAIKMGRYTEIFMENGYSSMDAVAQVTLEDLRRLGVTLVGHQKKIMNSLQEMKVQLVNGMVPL

Row | Molecule | internalization of bound antibody ([1]; EphA5+ cells, various concentrations) | internalization in H460 cells ([1]; FIG. 2A) | internalization of bound antibody (EphA5− cells) | internalization and lysosomal trafficking [2] | ka (EphA5 antigen) | ADC induced cell death (decrease of confluence) [3] | tumor growth [4] | tumor response (tumor volume) ([5]; 5 weekly doses of 10 mg/kg tail vein, 50 days, here ADC2 = VH5Vk3-ThioBridge®-VCP-(SN-38)2) | tumors removed at termination (weight) ([5]; ADC2 = VH5Vk3-ThioBridge®-VCP-(SN-38)2) | tumor response (tumor volume) [6] | change in body weight, first dosing vs termination ([7]; A549 xenograft, 10 mg/kg) | change in body weight, first dosing vs termination ([7]; H460 xenograft, 10 mg/kg every 5 days, 3 doses) | change in body weight, first dosing vs termination ([7]; H522 xenograft, 10 mg/kg weekly, 3 doses)
1 | B1 | internalized into EphA5+ cells but not EphA5− cells and trafficked to lysosome | dose dependent | not EphA5− cells | confirmed receptor-mediated internalization and trafficking of both human monoclonal antibodies through the lysosomal compartment | 1.21e-06 M⁻¹ s⁻¹ |  |  |  |  |  |  |  | 
2 | B2 |  |  |  |  |  | increasing amounts of ADC induced cell death which is dependent on the levels of expression of the target EphA5 | little measurable tumor growth | full and sustained regression of tumors | completely regressed | complete and sustained regression of all tumors; also recorded: full and sustained regression of tumors | No significant differences in the body weights | no significant changes in body weight | no significant changes
